Experimental data published in the antibiotic and cytotoxicity screens of Wong et al. (2023).
The list shows a part of the results.

Legend:
[1] = tested on: HSkMC (human skeletal muscle cells); assay: cytotoxicity call (relative viability < 0.9); conditions: 10 µM
[2] = tested on: HepG2; assay: cytotoxicity call (relative viability < 0.9); conditions: 10 µM
[3] = tested on: S. aureus RN4220; assay: growth inhibition call (relative growth <= 0.2); conditions: 50 µM

Row | Structure (SMILES) | cytotoxicity call [1] | cytotoxicity call [2] | growth inhibition call [3]
1 | CC(C)NC(=O)N(C)C[C@@H]1Oc2ccc(NC(=O)CCN3CCOCC3)cc2C(=O)N([C@@H](C)CO)C[C@H]1C | inactive | inactive | inactive
2 | CCC1CCC(N)CC1 (configuration not stated) | inactive | inactive | inactive
3 | CN1C(=O)c2cc(NS(=O)(=O)c3cccc(F)c3)ccc2OC[C@@H]2O[C@H](CC(=O)NCCN3CCCCC3)CC[C@@H]21 | inactive | inactive | inactive
4 | Cc1ccc(S(=O)(=O)N(C)C[C@@H]2OCCCC[C@@H](C)Oc3ccc(NS(=O)(=O)c4ccc(F)cc4)cc3C(=O)N([C@@H](C)CO)C[C@@H]2C)cc1 | inactive | inactive | inactive
5 | C[C@@H]1CCCCO[C@@H](CN(C)C(=O)c2ccccc2)[C@H](C)CN([C@@H](C)CO)C(=O)c2cc(NC(=O)c3ccccc3)ccc2O1 | inactive | inactive | inactive
6 | Cc1ccc(S(=O)(=O)N2C[C@H](O)COC[C@H]3O[C@H](CC(=O)NCCN4CCCCC4)CC[C@@H]32)cc1 | inactive | inactive | inactive
7 | Cc1ccc(S(=O)(=O)N(C)C[C@@H]2Oc3ccc(NS(=O)(=O)c4ccccc4)cc3C(=O)N([C@H](C)CO)C[C@@H]2C)cc1 | inactive | inactive | inactive
8 | O=C(C[C@H]1CC[C@H]2[C@@H](COC[C@@H](O)CN2C(=O)c2ccccc2)O1)NCCCN1CCOCC1 | inactive | inactive | inactive
9 | CCCN1C[C@H](C)[C@@H](O)[C@](C)(O)[C@@H](CC)OC(=O)[C@H](C)[C@@H](O[C@H]2C[C@@](C)(OC)[C@@H](O)[C@H](C)O2)[C@H](C)[C@@H](O[C@@H]2O[C@H](C)C[C@H](N(C)C)[C@H]2O)[C@](C)(O)C[C@H]1C | inactive | inactive | active
10 | C[C@H](CO)N1C[C@H](C)[C@H](CN(C)S(=O)(=O)c2ccc(Cl)cc2)OCCCC[C@H](C)Oc2ccc(NS(=O)(=O)c3ccccc3)cc2C1=O | inactive | active | inactive
11 | C[C@@H]1CN([C@H](C)CO)C(=O)Cc2cc(NS(=O)(=O)c3ccc(Cl)cc3)ccc2O[C@H]1CN(C)C(=O)Nc1ccc(C(F)(F)F)cc1 | inactive | inactive | inactive
12 | C[C@H](NC(=O)C[C@@H]1C[C@H]2c3cc(NC(=O)Nc4ccc(C(F)(F)F)cc4)ccc3O[C@H]2[C@@H](CO)O1)c1ccccc1 | inactive | inactive | inactive
13 | COc1ccc(NC(=O)N(C)C[C@@H]2OCCCC[C@H](C)Oc3ccc(NC(=O)c4ccccc4)cc3C(=O)N([C@@H](C)CO)C[C@@H]2C)cc1 | inactive | inactive | inactive
14 | C[C@H](CO)N1C[C@H](C)[C@@H](CN(C)C(=O)Nc2ccc(C(F)(F)F)cc2)Oc2ccc(NC(=O)Nc3ccccc3)cc2C1=O | inactive | inactive | inactive
15 | C[C@@H]1CN([C@H](C)CO)C(=O)c2cccc(NS(C)(=O)=O)c2O[C@@H]1CN(C)C(=O)Nc1ccc(F)cc1 | inactive | inactive | inactive
16 | Clc1ccccc1Nc1ccc(-c2ccncc2)s1 | inactive | inactive | inactive
17 | CC(C)NC(=O)N[C@H]1C=C[C@H](CC(=O)NCCCN(C)C)O[C@H]1CO | inactive | inactive | inactive
18 | COc1cc(NC(C)CCCN)c2ncccc2c1.O=P(O)(O)O.O=P(O)(O)O (configuration not stated) | inactive | active | inactive
19 | C[C@@H]1CCCCO[C@@H](CN(C)C(=O)Nc2ccccc2)[C@H](C)CN([C@@H](C)CO)C(=O)c2cc(NS(=O)(=O)c3cccs3)ccc2O1 | inactive | inactive | inactive
20 | CC(C)NC(=O)N(C)C[C@@H]1Oc2c(NC(=O)C3CCCCC3)cccc2C(=O)N([C@@H](C)CO)C[C@H]1C | inactive | inactive | inactive
21 | O=C(C[C@H]1CC[C@@H]2[C@H](COC[C@H](O)CN2S(=O)(=O)c2cccc(Cl)c2)O1)NCCCN1CCOCC1 | inactive | inactive | inactive
22 | C[C@H]1CCCCO[C@@H](CN(C)Cc2ccc(C(=O)O)cc2)[C@@H](C)CN([C@@H](C)CO)C(=O)c2cc(NC(=O)Cc3ccccc3)ccc2O1 | inactive | inactive | inactive
23 | O=S(=O)(NCC[C@@H]1CC[C@@H](NS(=O)(=O)c2ccccc2Cl)[C@@H](CO)O1)c1ccc(Cl)cc1 | inactive | inactive | inactive
24 | C[C@@H](Oc1ccccc1Cl)c1nc2ccc(Cl)cc2[nH]1 | inactive | inactive | active
25 | C[C@H](CO)N1C[C@H](C)[C@H](CN(C)S(=O)(=O)c2ccc3ccccc3c2)OCc2cnnn2CCCC1=O | inactive | inactive | inactive
26 | C[C@H](O)C#Cc1ccc2c(c1)O[C@@H](CN(C)C(=O)Nc1ccccc1)[C@H](C)CN([C@@H](C)CO)S2(=O)=O | inactive | inactive | inactive
27 | Cc1noc(C)c1S(=O)(=O)Nc1ccc2c(c1)C(=O)N([C@@H](C)CO)C[C@@H](C)[C@@H](CN(C)C(=O)Nc1ccccc1)O2 | inactive | inactive | inactive

Row | Structure (SMILES) | cytotoxicity call [1] | cytotoxicity call [2] | growth inhibition call [3]
28 | C[C@H]1CN([C@@H](C)CO)C(=O)c2cc(NC(=O)Nc3ccc(F)cc3)ccc2O[C@@H]1CN(C)Cc1ccc(Oc2ccccc2)cc1 | inactive | active | inactive
29 | COc1ccccc1C(=O)Nc1ccc2c(c1)C(=O)N(C)[C@H]1CC[C@H](CC(=O)NCc3ccc(Cl)c(Cl)c3)O[C@H]1CO2 | inactive | active | inactive
30 | Cc1noc(C)c1NC(=O)Nc1ccc2c(c1)C(=O)N([C@H](C)CO)C[C@H](C)[C@H](CN(C)C(=O)Nc1ccc3c(c1)OCO3)OCCCC[C@@H](C)O2 | inactive | inactive | inactive
31 | C[C@@H]1CN([C@@H](C)CO)C(=O)Cc2cc(NC(=O)C3CC3)ccc2O[C@@H]1CN(C)C(=O)Nc1ccc(F)cc1 | inactive | inactive | inactive
32 | C=CCC[C@@H](Cc1ccc(F)cc1)C(=O)OC[C@H](Cc1c[nH]c2ccccc12)NC(=O)[C@@H](CC=C)CC(=O)N(CCO)Cc1ccccc1 | inactive | inactive | inactive
33 | C[C@@H]1CCCCO[C@H](CN(C)Cc2ccccc2)[C@H](C)CN([C@@H](C)CO)C(=O)c2cc(NC(=O)c3ccccc3)ccc2O1 | inactive | inactive | inactive
34 | C[C@@H]1CN([C@H](C)CO)C(=O)Cc2cc(NC(=O)Nc3cccc4ccccc34)ccc2O[C@H]1CN(C)Cc1ccc(C(=O)O)cc1 | inactive | inactive | inactive
35 | C[C@H]1CN([C@@H](C)CO)C(=O)c2cccc(NC(=O)C3CCOCC3)c2O[C@@H]1CN(C)Cc1ccc(-c2ccccc2)cc1 | inactive | inactive | inactive
36 | COc1ccc(NC(=O)Nc2ccc3c(c2)C(=O)N([C@H](C)CO)C[C@H](C)[C@@H](CN(C)C(=O)C2CCCCC2)OCCCC[C@H](C)O3)cc1 | inactive | inactive | inactive
37 | CN(C)CC(=O)N[C@H]1CC[C@@H](CCNS(=O)(=O)c2ccccc2)O[C@@H]1CO | inactive | inactive | inactive
38 | C[C@H]1CN([C@@H](C)CO)C(=O)c2c(c3ccccc3n2C)-c2ccccc2CO[C@@H]1CN(C)C(=O)Nc1ccc(F)cc1 | inactive | inactive | inactive
39 | COc1ccc(NC(=O)N(C)C[C@@H]2Oc3ncc(Br)cc3C(=O)N([C@H](C)CO)C[C@@H]2C)cc1 | inactive | inactive | inactive
40 | NCc1ccccc1Cn1cccn1 | inactive | inactive | inactive
41 | Cc1ccc(S(=O)(=O)Nc2ccc3c(c2)C(=O)N([C@H](C)CO)C[C@@H](C)[C@H](CN(C)S(C)(=O)=O)O3)cc1 | inactive | inactive | inactive
42 | C[C@@H]1CN([C@@H](C)CO)C(=O)Cc2cc(NC(=O)Nc3cccc4ccccc34)ccc2O[C@H]1CN(C)Cc1ccc(Cl)c(Cl)c1 | inactive | inactive | inactive
43 | C[C@H]1CN([C@@H](C)CO)C(=O)Cc2cc(NC(=O)Cn3cnnn3)ccc2O[C@@H]1CN(C)Cc1ccc(C(F)(F)F)cc1 | inactive | inactive | inactive
44 | CN(C)CCCOc1nn(Cc2ccccc2)c2ccccc12.Cl | inactive | active | inactive
45 | CC(C)NC(=O)N(C)C[C@H]1Oc2ccc(NS(=O)(=O)c3ccccc3)cc2C(=O)N([C@@H](C)CO)C[C@@H]1C | inactive | inactive | inactive
46 | Cc1cc(C(=O)Nc2ccc3c(c2)C(=O)N(C)[C@H]2CC[C@@H](CC(=O)NCC(F)(F)F)O[C@H]2CO3)no1 | inactive | inactive | inactive
47 | Cc1noc(C)c1S(=O)(=O)Nc1ccc2c(c1)C(=O)N([C@H](C)CO)C[C@@H](C)[C@@H](CN(C)S(=O)(=O)c1cn(C)cn1)OCCCC[C@H](C)O2 | inactive | inactive | inactive
48 | C[C@@H]1CN([C@@H](C)CO)C(=O)Cc2cc(NS(=O)(=O)c3cn(C)cn3)ccc2O[C@@H]1CN(C)C(=O)Nc1ccc2c(c1)OCO2 | inactive | inactive | inactive
49 | Cc1ccc(S(=O)(=O)Nc2ccc3c(c2)CC(=O)N([C@@H](C)CO)C[C@@H](C)[C@H](CN(C)S(=O)(=O)c2cn(C)cn2)O3)cc1 | inactive | inactive | inactive
50 | COc1ccc(NC(=O)N(C)C[C@@H]2Oc3c(NC(=O)CCCCCC(=O)Nc4ccccc4N)cccc3C(=O)N([C@@H](C)CO)C[C@@H]2C)cc1 | inactive | inactive | inactive
51 | CCCCCCOc1ccccc1C(N)=O | inactive | inactive | inactive
52 | COC(=O)[C@H](Cc1ccc(-n2cc(CCC(=O)NO)nn2)cc1)N1CC(/C=C/[C@@H](O)Cc2ccccc2)=C[C@@H](C2CC2)O1 | inactive | inactive | inactive
53 | C[C@H]1CCCCO[C@@H](CN(C)C(=O)CCC(F)(F)F)[C@@H](C)CN([C@@H](C)CO)C(=O)c2cc(NS(=O)(=O)c3ccccc3)ccc2O1 | inactive | inactive | inactive
54 | CCC(=O)N(C)C[C@@H]1Oc2ncc(C#C[C@@H](C)O)cc2C(=O)N([C@@H](C)CO)C[C@H]1C | inactive | inactive | inactive
